Over roughly 33,000 sequences, “E-score (-0.5 to 0.5)” has its median near -0.012; the highest 2% begin near 0.29. Some of the results follow.
Target: T1, Ybr033w (UniProt P38073)
T1 sequence: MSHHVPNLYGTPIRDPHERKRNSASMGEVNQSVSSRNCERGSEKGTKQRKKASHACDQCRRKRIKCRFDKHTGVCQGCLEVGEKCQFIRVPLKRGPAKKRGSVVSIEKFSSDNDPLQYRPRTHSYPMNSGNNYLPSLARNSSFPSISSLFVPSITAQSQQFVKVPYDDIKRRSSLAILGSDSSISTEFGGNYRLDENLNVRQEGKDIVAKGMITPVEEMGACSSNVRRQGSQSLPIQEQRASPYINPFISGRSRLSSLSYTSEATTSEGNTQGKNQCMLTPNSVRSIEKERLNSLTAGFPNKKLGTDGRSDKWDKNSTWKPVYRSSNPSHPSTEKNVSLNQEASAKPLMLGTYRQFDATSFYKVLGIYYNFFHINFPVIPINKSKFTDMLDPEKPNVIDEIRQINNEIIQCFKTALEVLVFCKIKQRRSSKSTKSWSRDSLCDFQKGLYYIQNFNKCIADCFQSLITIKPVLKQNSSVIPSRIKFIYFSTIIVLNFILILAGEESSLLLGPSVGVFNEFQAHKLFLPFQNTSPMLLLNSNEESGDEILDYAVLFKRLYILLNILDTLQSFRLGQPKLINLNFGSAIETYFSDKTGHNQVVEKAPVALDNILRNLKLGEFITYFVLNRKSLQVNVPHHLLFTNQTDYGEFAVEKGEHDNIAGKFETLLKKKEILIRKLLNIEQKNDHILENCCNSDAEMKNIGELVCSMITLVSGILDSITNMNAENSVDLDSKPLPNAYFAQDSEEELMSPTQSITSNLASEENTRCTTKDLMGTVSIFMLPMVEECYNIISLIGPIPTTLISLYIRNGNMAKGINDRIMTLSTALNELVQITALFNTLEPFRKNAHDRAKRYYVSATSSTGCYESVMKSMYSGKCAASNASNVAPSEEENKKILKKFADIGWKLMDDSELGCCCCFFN
Experiment: PBM E-score (8-mer binding enrichment) (E-score (-0.5 to 0.5)); higher = stronger / more preferred TF binding; most listed sequences are background and not binding sites
Conditions: protein concentration: 200 nM; construct: GST-full length
Outline: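 Each ungapped eight-base word and its reverse complement, pooled, received an E-score from the Universal PBM Analysis Suite. Underlying scans, normalised with masliner, recorded fluorescent anti-GST bound to GST-tagged yeast transcription factors. These were applied at about 100-200 nM to universal all-10-mer Agilent arrays double-stranded by primer extension.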

Compared with ATCTATTG, GCCACTTA is lower in “PBM E-score” value: 0.204 for the first, 0.0976 for the second.

First: GAGGTGCC
Second: GGGAATGA
The “PBM E-score” value of the first is lower: -0.195 for the first, 0.106 for the second.

Going from AGACGCGG to CCCCACTA, the “PBM E-score” value falls from -0.0643 to -0.189.

First: CAGCATAC
Second: CAACCTCA
The “PBM E-score” value of the first is higher: -0.00523 for the first, -0.0705 for the second.

Compared with GCCCTTGA, CTACTGCC is lower in “PBM E-score” value: -0.0561 for the first, -0.141 for the second.

Compared with CGGAAGAA, TAGATGAA is lower in “PBM E-score” value: 0.462 for the first, 0.105 for the second.

Compared with CCCGCAAC, GAGGCTAA is higher in “PBM E-score” value: -0.123 for the first, 0.0916 for the second.

Going from CGGCAGGA to AAAAACTG, the “PBM E-score” value rises from -0.148 to 0.109.

Compared with CGGTGGCC, ACGCTAGT is higher in “PBM E-score” value: -0.166 for the first, -0.0989 for the second.

Compared with AAGCTGCA, AAGGTGAG is higher in “PBM E-score” value: -0.0266 for the first, 0.0488 for the second.

Compared with AAGCCTCT, CAAATTGA is higher in “PBM E-score” value: -0.287 for the first, 0.00834 for the second.

Compared with TACGAACA, GCGCAGTA is lower in “PBM E-score” value: 0.0716 for the first, -0.082 for the second.

Going from AGAACAGG to CATAATCC, the “PBM E-score” value rises from -0.125 to 0.0679.

Going from TTGTTAAA to CTTGCCCC, the “PBM E-score” value falls from 0.0557 to -0.288.

First: ATATCTTC
Second: GAATGGGA
The “PBM E-score” value of the first is higher: 0.218 for the first, -0.114 for the second.

Compared with GATCGTCC, ACTACGTC is lower in “PBM E-score” value: -0.0484 for the first, -0.0604 for the second.

Going from CCGAATTA to CACGGTTC, the “PBM E-score” value falls from 0.00463 to -0.265.

First: AAGCACCC
Second: ACCTACCT
The “PBM E-score” value of the first is lower: -0.198 for the first, -0.0698 for the second.

Going from ATGACGCC to AAATATGA, the “PBM E-score” value rises from -0.125 to 0.229.

First: ATCGAACG
Second: ACATCTGC
The “PBM E-score” value of the first is higher: -0.131 for the first, -0.175 for the second.

Compared with CTGAGGAC, GGTGTCGA is lower in “PBM E-score” value: 0.0142 for the first, -0.0898 for the second.

First: AGGGTAAA
Second: CCAATCAA
The “PBM E-score” value of the first is higher: 0.178 for the first, 0.075 for the second.

Going from AACATATG to AACTTAAT, the “PBM E-score” value rises from 0.13 to 0.314.

First: ACATAGTA
Second: CCTTGAGA
The “PBM E-score” value of the first is higher: 0.222 for the first, 0.0546 for the second.

Going from CTATGCGA to ATAATCAT, the “PBM E-score” value rises from -0.0724 to 0.292.

Compared with CATGACCA, ACCAGATC is lower in “PBM E-score” value: -0.0597 for the first, -0.0601 for the second.

Compared with GGCTAGCA, CCCGTGCG is higher in “PBM E-score” value: -0.219 for the first, -0.195 for the second.

First: ACAACGCG
Second: GAGCTCGC
The “PBM E-score” value of the first is higher: -0.0674 for the first, -0.175 for the second.

First: CGATCCTA
Second: AGGGAACC
The “PBM E-score” value of the first is higher: -0.0657 for the first, -0.205 for the second.

First: GAGTGTAA
Second: CCAGTATC
The “PBM E-score” value of the first is higher: -0.0812 for the first, -0.15 for the second.

First: AAGGAAAA
Second: AGGGCAAT
The “PBM E-score” value of the first is higher: 0.398 for the first, -0.0627 for the second.

Going from AAGGCGGC to ACACAGAG, the “PBM E-score” value rises from -0.237 to -0.0727.

First: CCGTTATA
Second: GATAGCAA
The “PBM E-score” value of the first is lower: -0.0193 for the first, 0.102 for the second.

First: ATGCATTA
Second: AGGACAAT
The “PBM E-score” value of the first is higher: 0.261 for the first, 0.108 for the second.

First: ACTGAGCC
Second: CTGTAGAA
The “PBM E-score” value of the first is lower: -0.094 for the first, 0.0486 for the second.

First: AGAGGAAA
Second: GAGTCAGA
The “PBM E-score” value of the first is higher: 0.104 for the first, -0.00932 for the second.

Compared with AGTGTTAA, AAAAACGG is lower in “PBM E-score” value: 0.224 for the first, 0.0555 for the second.

Compared with CCAATTAA, ACTAACAG is higher in “PBM E-score” value: 0.215 for the first, 0.219 for the second.

Compared with AACTCCGA, CTGATGGA is lower in “PBM E-score” value: -0.0263 for the first, -0.133 for the second.

Going from AGAGAGAA to AAAAGGCC, the “PBM E-score” value rises from -0.203 to -0.116.

Compared with CCGGCTGC, CAATAAAA is higher in “PBM E-score” value: -0.145 for the first, 0.225 for the second.

Compared with AATCTCTG, AAAGCTTT is lower in “PBM E-score” value: 0.00055 for the first, -0.166 for the second.

Compared with ACTCAGAC, AGTACGGA is higher in “PBM E-score” value: -0.00317 for the first, 0.17 for the second.

First: ATAGTCTC
Second: AAAACAGT
The “PBM E-score” value of the first is lower: 0.158 for the first, 0.228 for the second.

Compared with ACAGCCCG, ACGCCTTG is higher in “PBM E-score” value: -0.175 for the first, -0.0446 for the second.

Compared with AGTCTGAA, AGAAATTC is higher in “PBM E-score” value: -0.105 for the first, 0.178 for the second.

First: ACCACCAC
Second: AGCTAAGG
The “PBM E-score” value of the first is higher: 0.139 for the first, -0.119 for the second.

Going from AAATCGCA to GCAGATTA, the “PBM E-score” value falls from 0.173 to -0.0599.

Going from CAGTGCCG to CGGGGTAG, the “PBM E-score” value falls from -0.105 to -0.177.

First: AATTATTC
Second: CAAGGTGG
The “PBM E-score” value of the first is higher: 0.423 for the first, -0.083 for the second.

First: CACAACGA
Second: CCTTGTGA
The “PBM E-score” value of the first is lower: -0.00978 for the first, 0.0244 for the second.

First: CGCTGCCC
Second: CGGTTTCA
The “PBM E-score” value of the first is lower: -0.425 for the first, 0.0544 for the second.

Compared with GGTAAAAC, ACAATCCG is lower in “PBM E-score” value: 0.083 for the first, 0.0606 for the second.

Compared with GAGGCCTA, CTGAGCGA is higher in “PBM E-score” value: -0.246 for the first, -0.00633 for the second.

Compared with AGGGCGCA, ATGGAGGA is higher in “PBM E-score” value: -0.164 for the first, 0.0389 for the second.

First: CAGGGTCA
Second: CACGTATC
The “PBM E-score” value of the first is lower: -0.203 for the first, 0.0548 for the second.

First: CAGAGAGA
Second: AAATCCAA
The “PBM E-score” value of the first is lower: -0.223 for the first, 0.191 for the second.

Compared with GAAGGAGA, ATAACTGG is higher in “PBM E-score” value: -0.116 for the first, 0.144 for the second.

Going from CTAGCAAG to CAAACCTG, the “PBM E-score” value falls from 0.00544 to -0.0583.

Going from GGAGAACA to GATTCGGC, the “PBM E-score” value rises from 0.026 to 0.028.

Going from ATCAAAGA to CCCTAGAG, the “PBM E-score” value falls from 0.0429 to -0.113.

Compared with GCCTATCC, GTAGCTCA is higher in “PBM E-score” value: -0.188 for the first, 0.108 for the second.

Compared with TAACGACA, AGTACCCC is lower in “PBM E-score” value: 0.0572 for the first, -0.279 for the second.

Going from AGGATGGA to ATCGACAA, the “PBM E-score” value rises from 0.0276 to 0.074.

Going from ATTGCAAT to AGCATGTC, the “PBM E-score” value falls from 0.225 to -0.0812.

Going from ACGTTCAA to GGATAACA, the “PBM E-score” value rises from -0.106 to 0.0661.

Compared with ATATTAGG, CTTGGGTA is lower in “PBM E-score” value: 0.278 for the first, -0.073 for the second.

First: ATCGGCGG
Second: GACTAGAA
The “PBM E-score” value of the first is lower: -0.0596 for the first, 0.0495 for the second.

First: ACATCAGC
Second: CGGACCCC
The “PBM E-score” value of the first is higher: 0.0543 for the first, -0.313 for the second.

Compared with CTTCGAAC, GACTCACC is lower in “PBM E-score” value: 0.0126 for the first, -0.171 for the second.

First: GCCACTCA
Second: TATAGGAA
The “PBM E-score” value of the first is lower: -0.179 for the first, 0.232 for the second.

Compared with CAGTTGTC, GTATCAGA is lower in “PBM E-score” value: 0.123 for the first, 0.106 for the second.

Going from GGACTGCA to ATGTCAAT, the “PBM E-score” value rises from -0.208 to 0.148.

Going from GTCCCCAC to GAGTGGTA, the “PBM E-score” value rises from -0.293 to -0.0215.

Going from AGCCTGCG to AATCGAAC, the “PBM E-score” value rises from -0.277 to -0.0916.

First: AAACTAAT
Second: ATCTTCGG
The “PBM E-score” value of the first is higher: 0.254 for the first, 0.132 for the second.

Going from GTTACAAC to ACGTGCCT, the “PBM E-score” value falls from -0.00898 to -0.0895.

Going from ATTTGGGA to ATCCCATC, the “PBM E-score” value falls from 0.14 to 0.01.

Compared with CCTGATCG, AAATTGAT is higher in “PBM E-score” value: -0.0466 for the first, 0.336 for the second.

Going from ATTTGTGA to GAGCTAAA, the “PBM E-score” value falls from 0.231 to -0.139.

Compared with TCCTGCCA, ACCTCCAA is higher in “PBM E-score” value: -0.189 for the first, -0.115 for the second.

Going from ATGGAAAA to ACGGGTCA, the “PBM E-score” value falls from 0.32 to -0.277.

Going from CCACCAAG to AAACCCAG, the “PBM E-score” value rises from -0.0378 to 0.0703.

First: ACATCAAC
Second: AATAACAC
The “PBM E-score” value of the first is lower: 0.201 for the first, 0.222 for the second.

Going from GACCAAGC to ATCAATGC, the “PBM E-score” value rises from -0.0405 to -0.00485.

Going from AACATCCA to GGACAAAC, the “PBM E-score” value falls from 0.115 to -0.00297.
